Results as given in PMC11584402.
These are yes or no findings as the source states them, for the method shown. For some of these results: Binding seen in cells or lysates may run through a third protein. Some entries that bind do so weakly or less than the wild type. Sequences can lack the tags named with a protein. Values belong to the binder of their own block, whether it stands above or below them.

Sequences of proteins named here, by UniProt entry; tags and fusion partners are left off.
UniProt Q07820: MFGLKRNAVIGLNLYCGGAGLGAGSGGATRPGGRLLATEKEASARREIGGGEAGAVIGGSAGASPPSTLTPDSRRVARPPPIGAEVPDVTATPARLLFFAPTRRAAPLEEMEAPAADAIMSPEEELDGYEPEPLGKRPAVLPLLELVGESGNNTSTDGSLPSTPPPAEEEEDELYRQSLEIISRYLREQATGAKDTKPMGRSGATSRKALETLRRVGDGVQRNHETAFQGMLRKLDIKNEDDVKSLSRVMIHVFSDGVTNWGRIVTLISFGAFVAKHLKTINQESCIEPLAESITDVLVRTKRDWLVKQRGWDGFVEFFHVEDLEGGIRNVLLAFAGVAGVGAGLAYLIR

Legend:
MCL1-mCherry (human) [1] = biological target: MCL1-mCherry (human) (UniProt Q07820); assay: probe binding assay (PBA), single-molecule fluorescence counting; mCherry-labelled anti-apoptotic protein from HEK293T extract immobilised on the surface; eGFP-labelled probe in crude HEK293T extract added at a range of concentrations, 10 min; fractional occupancy fitted for Kd
MCL1-mCherry (human) [2] = biological target: MCL1-mCherry (human) (UniProt Q07820); assay: probe binding assay (PBA; single-molecule pull-down with TIRF counting); mCherry-labelled anti-apoptotic protein immobilised from HEK293T crude extract on a PEG surface (biotinylated anti-RFP antibody); crude HEK293T extract with the eGFP-labelled probe diluted to a range of eGFP concentrations, 10 min; fractional occupancy of surface baits at equilibrium fitted with n fixed to 1 or with the generalized Hill equation (n fitted)
[3] = biological target: BCL2-mCherry (human), P10415; assay: probe binding assay (PBA), single-molecule fluorescence counting; mCherry-labelled anti-apoptotic protein from HEK293T extract immobilised on the surface; eGFP-labelled probe in crude HEK293T extract added at a range of concentrations, 10 min; fractional occupancy fitted for Kd; conditions: remark: other sources report otherwise
[4] = biological target: B-cell-lymphoma-2 (BCL2), endogenous (human (endogenous in HL60)), P10415; assay: probe binding assay (PBA), single-molecule fluorescence counting; endogenous anti-apoptotic protein immobilised by its IP antibody from 1 mg ml^-1 crude extract of cancer cell lines or primary AML cells (GDN lysis, 1 h); eGFP-labelled probe in crude HEK293T extract added, 10 min; conditions: remark: other sources report otherwise
[5] = biological target: BCL2-like protein 4 (BAX), endogenous (human (endogenous in HL60)), Q07812; assay: co-IP; SMPC immunoassay of endogenous complexes: bait immobilised by a monoclonal IP antibody on a PEG surface from 2 mg ml^-1 crude cell extract (GDN lysis, 2 h), partner detected by a monoclonal antibody and a Cy3 secondary antibody; single-molecule counting; cells untreated or treated with staurosporine, ABT-199 or AZD-5991; conditions: remark: other sources report otherwise
[6] = biological target: BCL2-mCherry (human), P10415; assay: probe binding assay (PBA; single-molecule pull-down with TIRF counting); mCherry-labelled anti-apoptotic protein immobilised from HEK293T crude extract on a PEG surface (biotinylated anti-RFP antibody); crude HEK293T extract with the eGFP-labelled probe diluted to a range of eGFP concentrations, 10 min; fractional occupancy of surface baits at equilibrium fitted with n fixed to 1 or with the generalized Hill …; conditions: remark: other sources report otherwise

B3: BCL2 homologous antagonist/killer (BAK), endogenous, Q16611 1-211 (protein)
chain: MASGQGPGPPRQECGEPALPSASEEQVAQDTEEVFRSYVFYRHQQEQEAEGVAAPADPEMVTLPLQPSSTMGQVGRQLAIIGDDINRRYDSEFQTMLQHLQPTAENAYEYFTKIATSLFESGINWGRVVALLGFGYRLALHVYQHGLTGFLGQVTRFVVDFMLHHCIARWIAQRGGWVAALNLGNGPILNVLVVLGVVLLGQFVVRRFFKS
binding [5]: binds

B4: NOXA-eGFP, Q13794 1-54 (natural protein)
chain: MPGKKARKNAQPSPARAPAELEVECATQLRRFGDKLNFRQKLLNLISKLFCSGT
binding [6]: no binding
binding [3]: no binding

Other lines, results leading:

binding (MCL1-mCherry (human) [1]): no binding
binding (MCL1-mCherry (human) [2]): no binding
B1: BAD-eGFP (protein, UniProt Q92934 1-168)
chain: MFQIPEFEPSEQEDSSSAERGLGPSPAGDGPSGSGKHHRQAPGLLWDASHQQEQPTSSSHHGGAGAVEIRSRHSSYPAGTEDDEGMGEEPSPFRGRSRSAPPNLWAAQRYGRELRRMSDEFVDSFKKGLPRPKSAGTATQMRQSSSWTRVFQSWWDRNLGRGSSAPSQ

binding [3]: binds
binding [4]: binds
B2: BAD-eGFP, Q92934 1-168 (natural protein)
chain: MFQIPEFEPSEQEDSSSAERGLGPSPAGDGPSGSGKHHRQAPGLLWDASHQQEQPTSSSHHGGAGAVEIRSRHSSYPAGTEDDEGMGEEPSPFRGRSRSAPPNLWAAQRYGRELRRMSDEFVDSFKKGLPRPKSAGTATQMRQSSSWTRVFQSWWDRNLGRGSSAPSQ
